Assay results as given in PubChem BioAssay AID1745845 (National Center for Advancing Translational Sciences (NCATS), 2022).
Where “and” joins values, the source holds several entries; their conditions need not be identical. Equal entries are not always repeated. The campaign covered roughly 360,000 compounds. About 2,600 (0.72%) were called active. Inconclusive means that the source gave no clear call. Such entries were picked first, then a sample of the others. The call rests on the fitted dose curve; in most records, active means well fitted inhibition curve with a large enough effect; inconclusive means small, poorly fitted or top-dose-only effect; inactive means no such curve, though single readings can be large or run the other way. Potencies of inconclusive entries are doubtful fits and often do not repeat.

Assay: Primary qHTS for Inhibitors of ATXN expression; further: nearly all actives have a fitted effect of over 55% in size
Conditions: HEK-293 ATXN2-luciferase reporter, luminescence, 24 h; activity change, negative = inhibition: at 57 µM (top of the series)
Procedure, shortened: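 qHTS (up to 57 uM final) was run with 24 h compound exposure of reporter cells at 37 °C. Each well was multiplexed: SteadyGlo luminescence measured ATXN2-luciferase expression after a fluorogenic Gly-Phe-AFC viability readout (25 uM final).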
On the % scale 0 is the no-effect control and ±100 the full control effect; potency means the concentration at half of the fitted maximal effect; tags describe the fitted curve by direction and shape.

Potency, inconclusive:
CCOC(=O)c1c(NC(=O)C(C)Sc2cccc[n+]2[O-])sc2c1CCN(Cc1ccccc1)C2 (centres undefined) 9.47 µM [inhibitor, partial curve, poor fit]
NCCCCCc1nnc(SCc2ccccc2Cl)o1 11.2 µM [inhibitor, partial curve]
Cc1ccc(NC(=O)c2ccc(F)cc2)cc1S(=O)(=O)N1CCCCCC1 14.1 µM [inhibitor, single point]
C=Cc1cccc(NC(=O)c2ccc(NC(=O)c3ccco3)cc2)c1 1.41 µM [inhibitor, full curve, poor fit]
COc1ccccc1C(=O)Nc1ccc2nc(SCC(=O)N(C)c3ccccc3)sc2c1 14.1 µM [inhibitor, partial curve]
O=C(CN1C(=O)C2(SCC(=O)N2c2cccc(Cl)c2)c2ccccc21)NCCc1ccccc1 (centres undefined) 35.5 µM [inhibitor, single point]
O=C(/C=C1\SC(=O)N(CC(=O)Nc2ccc(Cl)cc2)C1=O)Nc1ccc(F)cc1 28.2 µM [inhibitor, single point]
Cc1ccc(Nc2c(-c3c[nH]c4ccccc34)nc3ccccn23)cc1 39.8 µM [inhibitor, single point]
CC(C)NC(=O)[C@H](CSCc1ccccc1)N1Cc2ccccc2C1=O 0.794 µM [inhibitor, partial curve, poor fit]
Nc1nc(Nc2ccccc2)nc(NCCO)c1[N+](=O)[O-] 10.6 µM [inhibitor, partial curve, poor fit]
COc1cccc(-c2csc3ncnc(Sc4nnnn4C)c23)c1 31.6 µM [inhibitor, partial curve, poor fit]
Cc1ccc(S(=O)(=O)Nc2nc3ccccc3nc2Nc2cccc(S(=O)(=O)N3CCCC3)c2)cc1 7.08 µM [inhibitor, partial curve, poor fit]
COc1ccccc1NC(=S)N1CCN(c2cccc(C)c2C)CC1 39.8 µM [inhibitor, single point]
O=C1CCC(=O)N1c1ccc(-c2nc3ccccc3s2)cc1 39.8 µM [inhibitor, single point]
CC1CN(C(=O)CCC(=O)N2CCN(c3cccc(C(F)(F)F)c3)CC2)c2ccccc2O1 (centres undefined) 20 µM [inhibitor, partial curve, poor fit]
C=CCC[C@@H](Cc1ccc(F)cc1)C(=O)OC[C@@H](C)NC(=O)[C@H](CC=C)CC(=O)N(CCO)Cc1ccccc1 35.5 µM [inhibitor, single point]
O=C(Nc1cc(Cl)cc(Cl)c1)c1cc(S(=O)(=O)NC2CCCC2)ccc1F 25.1 µM [inhibitor, single point]
Cc1ccc(NC(=O)CCc2nnc3ccc(N4CCC(C)CC4)nn23)nc1 20 µM [inhibitor, partial curve, poor fit]
CCCCCc1cc(=O)oc2c(C(CCN(CC)CC)c3ccc(OC)cc3)c(OC)cc(OC)c12 (centres undefined) 22.4 µM [inhibitor, single point]
CCOC(=O)c1c(NC(=O)COC(=O)c2nccnc2N)sc2c1CCC2 35.5 µM [inhibitor, single point]
COc1cc(S(=O)(=O)NCCc2c(C)[nH]c3ccc(C)cc23)ccc1Br 25.1 µM [inhibitor, single point]
Cc1onc(-c2ccccc2Cl)c1C(=O)N/N=C(\N)COc1ccc(Cl)cc1 31.6 µM [inhibitor, single point]
O=C(Nc1cc(-c2ccccc2)nn1C1CCCCC1)c1ccc(Cl)cc1 35.5 µM [inhibitor, partial curve, poor fit]
COc1cc(F)ccc1-c1cc(C(=O)NCc2cccc(Cl)c2)[nH]n1 39.8 µM [inhibitor, partial curve, poor fit]
COc1ccc(NS(=O)(=O)c2ccc(N3CCOCC3)c(N)c2)cc1 5.01 µM [inhibitor, partial curve, poor fit]
CCOc1ccccc1NC(=O)COC(=O)CC(C)(C)CC1=NS(=O)(=O)c2ccccc2N1 25.1 µM [inhibitor, partial curve, poor fit] and 35.5 µM [inhibitor, partial curve, poor fit]
COc1c(OCCCN2CCOCC2)ccc2c3n(c(=NC(=O)c4cnc(N)nc4)nc12)CCN3 3.76 µM [inhibitor, partial curve]
COc1ccc(OC)c(S(=O)(=O)Nc2ccc(O)c3ccccc23)c1 35.5 µM [inhibitor, single point]
O=[N+]([O-])c1cc(Cl)cc(/C=N/NC(=S)Nc2cc(S(=O)(=O)N3CCOCC3)ccc2Cl)c1O 39.8 µM [inhibitor, single point]
O=C(Cc1csc(Nc2nc(=S)[nH]c3ccccc23)n1)NCc1ccccc1Cl 22.4 µM [inhibitor, single point]
Cc1nc(-c2ccccc2)sc1C(=O)/C=C/c1ccc(Cl)cc1 12.6 µM [inhibitor, partial curve, poor fit]
Cc1cc(N2C3CCC2CC(O)(c2ccc(F)cc2)C3)nc(-c2ccccc2)n1 (centres undefined) 39.8 µM [inhibitor, single point]
COc1ccccc1NC(=O)COc1ccccc1C(=O)Nc1ccccc1 13.4 µM [inhibitor, partial curve, poor fit]
COc1ccc(-c2ccc(C(=O)NC(C)C)c3occc23)c(C)c1 39.8 µM [inhibitor, single point]
CCC1Oc2ccc(C)cc2N(CC(=O)N(Cc2ccc(C)o2)C2CC(C)(C)NC(C)(C)C2)C1=O (centres undefined) 35.5 µM [inhibitor, single point]
CC(C)C(=O)N1CCN(c2ccccc2NC(=O)c2cccc3ccccc23)CC1 7.08 µM [inhibitor, single point]
COc1ccc(CC(=O)Nc2ccc(-c3nnc(-c4ccc(C)cc4)o3)cc2)cc1 7.94 µM [inhibitor, partial curve, poor fit]
Cc1cc(C)c(CSc2ncc(-c3ccc([N+](=O)[O-])cc3)[nH]2)c(C)c1 39.8 µM [inhibitor, single point]
Cc1cccc(N2CCN(C(=O)c3ccc(Cl)c(S(=O)(=O)NCc4ccco4)c3)CC2)c1C 22.4 µM [inhibitor, single point]

Potency, inactive:
Oc1ccc(O)c(Cc2nc3ccccc3[nH]2)c1
CCOC(=O)C1=CN(Cc2cccc(F)c2)S(=O)(=O)N(C)C1c1ccccc1 (centres undefined)
COc1ccc(OC)c(CCNC(=O)c2cc3c(s2)-c2c(C)cccc2OC3)c1
Cn1c2ccccc2c2cnn(CC(=O)NCCCN3CCCCC3)c(=O)c21
CCOc1ccc(NC(=O)CSc2cn(CCNC(=O)c3ccccc3F)c3ccccc23)cc1
NC(CO)(CO)CO
Cc1ccc2c(c1)c1c(c(=O)n(Cc3ccccc3)c(=O)n1Cc1ccccc1F)n2C
COc1cc(-c2nnc(NC(=O)CCS(=O)(=O)c3ccc(F)cc3)o2)cc(OC)c1OC
O=S(=O)(c1ccc(F)cc1)N1CCN(CC(O)COCc2ccccc2)CC1 (centres undefined)
CCc1cc(C(=O)NNC(=O)CCN2CCN(c3ccccc3)CC2)sc1C
Cc1c(C(=O)N(Cc2ccc(Cl)cc2)C2CCS(=O)(=O)C2)oc2ccccc12 (centres undefined)
O=C(OCCN1CCCCC1)c1ccccc1Cl
CC(Oc1cccc(Cl)c1)C(=O)Nc1nc(-c2ccccn2)cs1 (centres undefined)
CCNC(=S)NNC(=O)Cn1nc(C)cc1C
CCOc1ccccc1CN1CCNC(=O)C1CC(=O)NCc1ccccn1 (centres undefined)
Cc1ccc2cc3c(NC(=O)c4ccco4)nn(C)c3nc2c1
CC(C)(C)C(=O)NNc1nc(-c2ccccc2)c2cc(Br)ccc2n1

Potency, active:
COc1ccc([N+](=O)[O-])cc1NC(=S)NC(NC(=O)C(c1ccccc1)c1ccccc1)C(Cl)(Cl)Cl (centres undefined) 22.4 µM
O=C(CCCN1C(=O)/C(=C/c2cccc(Br)c2)SC1=S)Nc1ccccn1 10 µM
CC1(C)CC[C@]2(C(=O)O)CC[C@]3(C)C(=CC[C@@H]4[C@@]5(C)CC[C@H](O[C@@H]6O[C@H](C(=O)O)[C@@H](O)[C@H](O[C@@H]7OC[C@H](O)[C@H](O)[C@H]7O)[C@H]6O)C(C)(C)[C@@H]5CC[C@]43C)[C@@H]2C1 11.2 µM
COc1cc(SC#N)ccc1N=Cc1c(C)[nH]n(-c2ccc(C)c(C)c2)c1=O 11.2 µM
CC(=O)NCC(=O)N1[C@H]2CC[C@H]1c1cc(Nc3ncc(C(F)(F)F)c(NC4CCC4)n3)ccc12 4.85 µM
COc1cc(/C=C/c2ccc3cccc(O)c3n2)cc(OC)c1OC 15.8 µM

Activity change, negative = inhibition, inconclusive:
Cc1ccc(OC(C)C(=O)Nc2ccncc2)cc1C (centres undefined) -39.6% [inhibitor]
CCOC(=O)C1(Cc2cccc(OC)c2)CCN(C/C=C/c2ccc(OC)cc2)CC1 -68.4% [inhibitor]
